Source: a collection of fitness landscapes (doi:10.1016/j.celrep.2020.107928)
Over roughly 81,000 sequences, “one-hybrid fitness for binding parS DNA” has its median near -0.17; the highest 2% begin near 0.51. This is one part of the list.

B1: Caulobacter ParB omega fusion; a variant is named by its letters at X, in order, B8GW30 (parent)
chain: MESVVVGEPGMSEGRRGLGRGLSALLGEVDAAPAQAPGEQLGGSREAPIEILQRNPDQPRRTFREEDLEDLSNSIREKGVLQPILVRPSPDTAGEYQIVAGERAWRAAQRAGLKTVPIMVRELDDLAVLEIGIIENVQRADLNVLEEALSYKVLMEKFERTQENIAQTIGKSXSHVANXMRLLXLPDEVQSYLVSGELTAXHARAIAAAADPVALAKQIIEGGLSVRETEALARKAPNLSAGKSKGGRPPRVKDTDTQALESDLSSVLGLDVSIDHRGSTGTLTITYATLEQLDDLCNRLTRGI

Variants of: B1
Assay: one-hybrid fitness for binding parS DNA (scaled: cognate 1, non-cognate 0); higher = stronger binding
Details: with parS DNA site
Outline: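 Caulobacter ParB libraries with four specificity codons randomised were screened by bacterial one-hybrid selection in the E. coli USO strain, using a HIS3 reporter whose site lies 19 bp from the promoter. Selection ran for 48 hours at 37°C on M9 lacking histidine, with 0.1 mM IPTG and 5 mM 3-AT. Plasmids were Illumina-sequenced before and after selection, three replicate libraries were pooled, and variants with under 10 reads were dropped. Fitness is the log change in each variant's read ratio to wild type, rescaled against the cognate and non-cognate sites.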

one-hybrid fitness for binding parS DNA, 1:
RSHS

one-hybrid fitness for binding parS DNA, 0.324:
HRSC

one-hybrid fitness for binding parS DNA, 0.372:
RADN

one-hybrid fitness for binding parS DNA, 0.24:
RSSF

one-hybrid fitness for binding parS DNA, 0.26:
RFVN

one-hybrid fitness for binding parS DNA, 0.609:
RWIS

one-hybrid fitness for binding parS DNA, 0.544:
RTHY

one-hybrid fitness for binding parS DNA, 0.353:
RVEY

one-hybrid fitness for binding parS DNA, 0.255:
RQEM

one-hybrid fitness for binding parS DNA, 0.565:
RVGA

one-hybrid fitness for binding parS DNA, 0.231:
RIHW

one-hybrid fitness for binding parS DNA, 0.25:
RFRF

one-hybrid fitness for binding parS DNA, 0.247:
RRVY
RIMF

one-hybrid fitness for binding parS DNA, 0.375:
RYRN

one-hybrid fitness for binding parS DNA, ≤ 0.2:
IPER
WYPQ
TAPL
QCVM
IMRT
MTYR
GQCR
SEHS
ELIS
TVRC
GHRK
PQFG
YDKN
KMFS
LCFS
TFLR
NHNY
VALF
SRPC
NLDT
SPRM
VRTR
GSVS
THWR
GKAK
KWPI
SPEL
VVMC
EDNS
IVLT
YVHA
ILPP
PHVK
AYLE
HQCR
MPLR
VFSL
KMWR
HYLC
QPAP
ASID
HTYV
YAPL
GWDR
QLHS
HEIV
QNVM
KPHG
ITDR
WTML
PNPR
NFLR
IIKS
NTEG
SLWA
KRIN
GDRK
GRKK
VAKG
CPIG
TNNV
GHRS
QIGC
MKLG
FTEG
TECF
CSGP
FNST
WILE
ISLY
CRKI
MTQG
LDFT
GYNM
TLRC
NKDG
PSTA
EVSE
PVES
RPVP
ERHN
FDHS
SHTN
RKYI
KYRQ
GGTG
ICRD
KQLG
FQLR
HAQC
VTRS
MEKS
RKAW
PWAI
MLMT
HHKT
RWII
NDKS
HGTT
MMLC
ITQT
QLRP
WIQC
LTMR
TIMG
NRTR
FKQR
QVGR
QAEK
CSAE
DNSD
CGET
SSYY
FFQR
LYYR
HMGC
PLAN
HPAI
RAMK
GPIF
NKDH
TRIL
TRYA
NYKS
SFEL
SVQG
CGSD
RIPF
KYRV
ERAK
NRCA
GESY
NFSF
SIIN
ADGR
TDRL
CHNG
KAYT
TMIC
CHDT
EGAY
AWQF
KDKS
KKKI
ARQC
IKCT
EPYS
PEYR
TSRR
FLTR
NVQW
QTDK
AWPG
KDMS
QNKW
NKRA
IAVM
SDVT
VDGL
WMEG
TISC
QEEK
TLSI
NHVF
CYHG
HHFS
HLEL
DDLR
AHPL
NQTC
YLFG
AERW
ATET
SSKG
GVHS
STDN
VTSM
FYRV
MFAT
TRTK
FQRG
APRW
RRGP
FYRL
LQVF
DMPR
INKG
AREV
IASV
LEWE
HSRA
VNST
FNTF
PSRF
RRMR
TADE
SCGG
PMHY
FSHF
DCSL
VNQS
QVKD
WKHR
TVLS
AAMG
APGT
TFRI
NWIG
HMCG
RKTF
PSMV
LTEV
AYAF
RTDE
SFPT
CYYT
KNWG
RHYW
IAPK
HYVL
ALIA
LRMI
VCER
GTSN
TQPR
GIMC
HMRS
PLPT
CRDS
NSQD
PIMH
QVAD
WMLC
AHTA
LTNA
AYCS
TMPR
ETTN
NKGM
GSYA
KVML
AFFE
PCEH
SAIH
RPNK
STVM
HCMT
HMKR
YTKL
GYAC
RRSI
YSKT
SQDI
NKYR
PALP
ASGL
HARE
GTGM
FPVV
RLRL
DWLG
WPLF
SDRW
DVKR
NDCC
LEAR
PAPS
GPKY
RYGR
EFGP
CRPN
ARVC
QFQT
PFMR
SMRH
SHNC
QAGT
DKDR
ERVL
YIES
VIHT
NGGS
QRQA
TRRR
TEYG
VCGS
NSHM
TTQT
TRGL
KSID

one-hybrid fitness for binding parS DNA, 0.51:
RGWG
